Data from publication PMC6280653.
Substitutions are numbered along the chain they refer to. No constants are given. Whether binding was seen depends on the method and setting. Binding seen in cells or lysates may run through a third protein. Some entries that bind do so weakly or less than the wild type. Sequences can lack the tags named with a protein.

Amino acid sequences for entries named in this document (tags omitted). A change or cut given only in a name is not applied to a line headed by its entry.
UniProt Q9UL45: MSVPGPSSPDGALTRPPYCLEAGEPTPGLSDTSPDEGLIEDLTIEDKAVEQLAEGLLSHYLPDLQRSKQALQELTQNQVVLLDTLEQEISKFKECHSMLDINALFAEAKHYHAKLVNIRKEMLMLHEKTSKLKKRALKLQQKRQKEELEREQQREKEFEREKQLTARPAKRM
UniProt Q969F9: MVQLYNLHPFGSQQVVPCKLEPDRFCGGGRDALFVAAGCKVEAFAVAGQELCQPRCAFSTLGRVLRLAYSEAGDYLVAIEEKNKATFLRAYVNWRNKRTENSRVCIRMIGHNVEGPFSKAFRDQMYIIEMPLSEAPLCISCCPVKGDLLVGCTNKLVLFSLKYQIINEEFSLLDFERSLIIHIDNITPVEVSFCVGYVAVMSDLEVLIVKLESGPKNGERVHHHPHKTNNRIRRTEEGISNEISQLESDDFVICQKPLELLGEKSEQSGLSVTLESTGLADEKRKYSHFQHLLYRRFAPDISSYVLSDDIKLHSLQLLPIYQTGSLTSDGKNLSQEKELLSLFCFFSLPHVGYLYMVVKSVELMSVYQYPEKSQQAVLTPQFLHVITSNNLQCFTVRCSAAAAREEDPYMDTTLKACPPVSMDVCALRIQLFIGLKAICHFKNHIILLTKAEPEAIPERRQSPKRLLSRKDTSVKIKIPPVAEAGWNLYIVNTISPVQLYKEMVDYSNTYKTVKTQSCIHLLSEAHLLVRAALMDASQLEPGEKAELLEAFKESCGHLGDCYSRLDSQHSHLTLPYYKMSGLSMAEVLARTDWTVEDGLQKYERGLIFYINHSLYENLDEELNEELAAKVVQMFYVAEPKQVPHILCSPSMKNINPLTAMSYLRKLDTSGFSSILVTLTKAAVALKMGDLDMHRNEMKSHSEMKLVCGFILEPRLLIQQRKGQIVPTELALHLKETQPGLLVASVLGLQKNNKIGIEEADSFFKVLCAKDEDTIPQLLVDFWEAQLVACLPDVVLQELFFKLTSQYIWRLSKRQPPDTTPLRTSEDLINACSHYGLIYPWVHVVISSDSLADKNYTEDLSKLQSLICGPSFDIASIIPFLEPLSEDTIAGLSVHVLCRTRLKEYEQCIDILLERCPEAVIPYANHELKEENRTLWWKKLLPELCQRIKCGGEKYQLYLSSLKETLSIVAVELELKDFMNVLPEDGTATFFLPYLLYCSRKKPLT
UniProt Q91VB4: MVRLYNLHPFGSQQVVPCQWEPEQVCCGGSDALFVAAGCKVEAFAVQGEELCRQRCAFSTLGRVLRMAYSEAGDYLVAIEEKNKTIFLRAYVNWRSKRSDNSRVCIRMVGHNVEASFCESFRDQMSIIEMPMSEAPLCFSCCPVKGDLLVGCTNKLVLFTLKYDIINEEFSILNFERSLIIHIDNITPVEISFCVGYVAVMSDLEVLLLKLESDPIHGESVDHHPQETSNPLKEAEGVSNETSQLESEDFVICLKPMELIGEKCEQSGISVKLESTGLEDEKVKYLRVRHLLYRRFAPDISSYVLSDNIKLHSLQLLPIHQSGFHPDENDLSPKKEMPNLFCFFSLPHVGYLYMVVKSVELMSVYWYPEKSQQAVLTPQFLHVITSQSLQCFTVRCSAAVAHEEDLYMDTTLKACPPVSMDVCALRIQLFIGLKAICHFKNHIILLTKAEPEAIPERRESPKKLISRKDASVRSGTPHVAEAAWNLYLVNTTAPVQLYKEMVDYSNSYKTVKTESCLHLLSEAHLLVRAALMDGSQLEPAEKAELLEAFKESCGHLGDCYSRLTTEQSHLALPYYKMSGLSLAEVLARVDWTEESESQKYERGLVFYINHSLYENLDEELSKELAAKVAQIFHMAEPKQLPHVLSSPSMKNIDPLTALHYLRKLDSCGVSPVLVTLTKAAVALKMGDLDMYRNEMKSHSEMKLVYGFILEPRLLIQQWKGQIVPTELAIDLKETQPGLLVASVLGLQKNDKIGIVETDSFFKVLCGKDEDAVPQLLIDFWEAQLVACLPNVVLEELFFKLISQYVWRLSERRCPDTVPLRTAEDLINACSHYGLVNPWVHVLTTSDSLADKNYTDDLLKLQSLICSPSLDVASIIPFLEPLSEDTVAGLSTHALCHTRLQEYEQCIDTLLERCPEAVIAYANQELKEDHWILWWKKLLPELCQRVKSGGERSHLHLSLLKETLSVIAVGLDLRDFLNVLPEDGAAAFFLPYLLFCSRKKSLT
UniProt P07355: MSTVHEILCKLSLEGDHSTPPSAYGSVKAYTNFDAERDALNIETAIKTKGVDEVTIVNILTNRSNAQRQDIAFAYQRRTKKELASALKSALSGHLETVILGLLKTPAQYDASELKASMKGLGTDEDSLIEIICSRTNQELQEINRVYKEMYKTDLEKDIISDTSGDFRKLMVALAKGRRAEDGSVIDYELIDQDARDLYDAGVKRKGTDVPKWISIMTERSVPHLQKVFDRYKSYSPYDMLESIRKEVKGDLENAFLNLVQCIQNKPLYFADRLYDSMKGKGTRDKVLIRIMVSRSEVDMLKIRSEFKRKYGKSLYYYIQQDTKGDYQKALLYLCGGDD

T1: 6xHis-Rab22A^WT (mouse) (UniProt P35285)
T1 sequence: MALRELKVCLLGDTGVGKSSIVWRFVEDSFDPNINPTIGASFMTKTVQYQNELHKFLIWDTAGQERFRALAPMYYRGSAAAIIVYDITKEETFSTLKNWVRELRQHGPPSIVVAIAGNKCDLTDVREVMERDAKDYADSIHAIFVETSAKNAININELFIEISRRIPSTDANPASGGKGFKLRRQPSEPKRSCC

T2: 6xHis-Rab22A^Q64L (mouse) (UniProt P35285)
T2 sequence: T1 sequence with Q64L

T3: His-K13^motor (human) (UniProt Q9H1H9)
T3 sequence: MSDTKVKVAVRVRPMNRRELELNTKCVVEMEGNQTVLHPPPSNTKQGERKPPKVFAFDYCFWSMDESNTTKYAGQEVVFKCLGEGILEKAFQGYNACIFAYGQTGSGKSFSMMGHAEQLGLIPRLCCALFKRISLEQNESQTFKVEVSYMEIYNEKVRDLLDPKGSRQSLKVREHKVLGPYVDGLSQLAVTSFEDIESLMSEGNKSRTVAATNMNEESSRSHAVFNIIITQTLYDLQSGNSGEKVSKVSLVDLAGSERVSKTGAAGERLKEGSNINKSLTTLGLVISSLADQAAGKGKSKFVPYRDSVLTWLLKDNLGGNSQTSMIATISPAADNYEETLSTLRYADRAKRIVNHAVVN

B1: Rab38 (protein, UniProt Q8QZZ8 1-211)
chain: MQTPHKEHLYKLLVIGDLGVGKTSIIKRYVHQNFSSHYRATIGVDFALKVLHWDPETVVRLQLWDIAGQERFGNMTRVYYREAMGAFIVFDVTRPATFEAVAKWKNDLDSKLTLPNGKPVSVVLLANKCDQGKDVLMNNGLKMDQFCKEHGFVGWFETSAKENINIDEASRCLVKHILANECDLLESIEPDIVKPHLTSPKVVSCSGCAKS

Tests used:
6xHis-Rab22A^WT (mouse) [1] = target: T1, 6xHis-Rab22A^WT (mouse); experiment: pull-down; His-Rab22A^WT on Ni-NTA beads incubated with HeLa cell lysate in RIPA buffer, 6-8 h, 4°C; immunoblot; only the target purified
6xHis-Rab22A^WT (mouse) [2] = target: T1, 6xHis-Rab22A^WT (mouse); experiment: pull-down; His-Rab22A^WT on Ni-NTA beads incubated with melanocyte lysate in RIPA buffer, 6-8 h, 4°C; immunoblot; the beads of Fig 5E were preloaded with nucleotide, here GTPγS (1 mM); only the target purified
[3] = target: T2, 6xHis-Rab22A^Q64L (mouse); experiment: pull-down; His-Rab22A^Q64L on Ni-NTA beads incubated with melanocyte lysates in RIPA buffer, 6-8 h, 4°C; immunoblot; no nucleotide loading told; only the target purified
6xHis-Rab22A^WT (mouse) [4] = target: T1, 6xHis-Rab22A^WT (mouse); experiment: pull-down; His-Rab22A^WT on Ni-NTA beads preloaded with GDP (1 mM), incubated with melanocyte lysate in RIPA buffer, 6-8 h, 4°C; immunoblot; only the target purified
His-K13^motor (human) = target: T3, His-K13^motor (human); experiment: pull-down; His-KIF13A domains (motor, stalk-1, stalk-2, tail) on Ni-NTA beads incubated with HeLa cell lysate in RIPA buffer, 6-8 h, 4°C; immunoblot; only the target purified

| Molecule | binding (6xHis-Rab22A^WT (mouse) [1]) | binding (6xHis-Rab22A^WT (mouse) [2]) | also measured |
| --- | --- | --- | --- |
| BLOC-1 (biogenesis of lysosome-related organelles complex-1) (from UniProt Q9UL45 1-172; Q8TDH9 1-187; Q96EV8 1-351; Q9NUP1 1-217; O95295 1-136; P78537 1-153; Q6QNY1 1-142; Q6QNY0 1-202) | binds | – | – |
| BLOC-2 (biogenesis of lysosome-related organelles complex-2) (from UniProt Q969F9 1-1004; Q9UPZ3 1-1129; Q86YV9 1-775) | binds | – | – |
| BLOC-2 (biogenesis of lysosome-related organelles complex-2), of melanocytes (from UniProt Q91VB4 1-1002; P59438 1-1126; Q8BLY7 1-805) | – | binds | binding [3]: binds; binding (6xHis-Rab22A^WT (mouse) [4]): no binding (condition: His-Rab22A loaded with GDP) |
| KIF13A (from UniProt Q9H1H9 1-1805) | binds | – | – |
| TYRP1 (tyrosinase-related protein-1) (from UniProt P07147 25-537) | – | no binding | – |
| annexin A2 (from UniProt P07355 1-339) | – | – | binding (His-K13^motor (human)): binds |
| B1 | – | no binding | – |
